The source of these data is PubChem BioAssay AID488969 (Vanderbilt High Throughput Screening Facility, 2010).

The full ranking holds about 110,000 compounds; the median of “z-score” is about -0.1, and the highest 2% start at about 2. Some of the results follow. Active and inactive are the calls of the source.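 How the source made its calls: active means z-score in the third read window above 3 or below -3; inactive means the rest.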

The assay has as its target Metabotropic glutamate receptor 8 (Rattus norvegicus) (UniProt P70579). Description: mGluR8 Gi/Go-coupled signaling modulation – cell-based, rat, thallium flux, HTS, primary screen (AID 488969). As to conditions: HEK293 rat mGluR8, GIRK (G protein-gated inwardly rectifying potassium channel) thallium flux, FluoZin2; at 10 µM; stronger effect = higher value; submaximal glutamate (EC20) added with thallium.
UniProt P70579, sequence (P70579 whole entry, looked up): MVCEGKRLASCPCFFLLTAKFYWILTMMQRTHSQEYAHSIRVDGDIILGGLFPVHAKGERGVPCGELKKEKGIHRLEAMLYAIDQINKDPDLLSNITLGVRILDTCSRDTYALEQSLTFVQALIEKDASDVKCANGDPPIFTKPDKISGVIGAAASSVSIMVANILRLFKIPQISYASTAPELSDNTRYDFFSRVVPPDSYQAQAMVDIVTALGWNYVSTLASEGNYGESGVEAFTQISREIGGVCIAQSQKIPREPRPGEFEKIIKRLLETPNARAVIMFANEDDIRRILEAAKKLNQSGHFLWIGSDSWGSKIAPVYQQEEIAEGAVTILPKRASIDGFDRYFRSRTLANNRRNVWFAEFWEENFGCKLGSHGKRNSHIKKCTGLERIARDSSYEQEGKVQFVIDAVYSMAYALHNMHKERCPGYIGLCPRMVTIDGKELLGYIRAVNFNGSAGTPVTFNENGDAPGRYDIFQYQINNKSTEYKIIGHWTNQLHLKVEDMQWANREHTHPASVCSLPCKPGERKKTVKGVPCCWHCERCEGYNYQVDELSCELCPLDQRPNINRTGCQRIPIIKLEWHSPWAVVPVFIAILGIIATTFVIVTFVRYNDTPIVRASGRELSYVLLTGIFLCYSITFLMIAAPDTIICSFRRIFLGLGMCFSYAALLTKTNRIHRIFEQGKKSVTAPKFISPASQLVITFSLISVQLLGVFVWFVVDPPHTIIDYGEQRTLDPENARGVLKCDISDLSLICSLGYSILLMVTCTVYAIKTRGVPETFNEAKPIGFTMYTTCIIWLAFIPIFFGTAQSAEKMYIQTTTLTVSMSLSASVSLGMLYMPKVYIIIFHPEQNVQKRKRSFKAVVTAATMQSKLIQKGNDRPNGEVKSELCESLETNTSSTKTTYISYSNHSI
The molecule `CCCC1=C(C(=O)OCC)C(c2cc(Cl)cc(OC)c2OCC(=O)OCC)NC(=O)N1` (stereo not drawn) came in with a z-score of -2.37.
Under `O=C(CSc1nnc(SCc2cccc3ccccc23)s1)c1ccc2c(c1)OCO2` stands 1.35.
Regarding `NC(=S)N=Nc1c(O)n(C2OC(=O)c3ccccc32)c2ccccc12` (stereo not drawn), the z-score is 1.12.
In turn, `CCn1c(-c2ccco2)n[nH]c1=S` registered a z-score of 7.63e-05.
`Cc1onc(-c2ccccc2Cl)c1C(=O)NCCN1Cc2ccccc2C1=O` registered a z-score of 0.636.
In the case of `CCOC(=O)c1c(C=O)c(C)n(Cc2ccc(Cl)cc2)c1C`, the z-score amounted to 0.0766.
As for `CC1(C)C([N+](=O)[O-])C(c2ccc(Cl)cc2)NC(c2ccc(Cl)cc2)C1[N+](=O)[O-]` (stereo not drawn), the figure is -0.14.
Under `O=C(CN1CCCC1)NC12CC3CC(CC(C3)C1)C2` stands -0.0651.
With `CC(=O)c1cc(OC(=O)c2ccncc2)ccc1OC(=O)c1ccncc1`, the z-score was -0.347.
The molecule `Cc1nc(SCC(N)=O)[nH]c(=O)c1CCC(C)C` showed a z-score of -0.0972.
Regarding `Cc1ccc(NCc2nnc(SCC(=O)N3CCc4ccccc43)n2C)cc1`, the z-score was -0.0452.
Under `CCOc1ccc(-c2nc(-c3ccccc3C)no2)cc1` stands 0.583; under `COc1ccc(/C=N/NC(=O)c2cc(C34CC5CC(CC(C5)C3)C4)[nH]n2)cc1O`, -0.472; under `N#C/C(=C\c1ccc(OCc2ccccc2)cc1)C(=O)Nc1nc2c(s1)CCN(Cc1ccccc1)C2`, -0.419.
Under `O=C(Nc1ccccc1C(=O)O)c1ccc2ccccc2n1` stands -0.622; under `O=C(c1ccccc1)N(Cc1ccc(F)cc1)Cc1nc2ccccc2c(=O)[nH]1`, 0.0675.
Regarding `CCOC(=O)N1CCN(CC(=O)c2ccc3c(c2)CCN3)CC1`, the z-score is -0.375.
Under `COC(=O)c1cc(C(=O)OC)cc(N2C(=O)CC(Sc3nc(C)cc(C)n3)C2=O)c1` (stereo not drawn) stands 0.178; under `Cc1ccc(C(=O)NCCNS(=O)(=O)c2ccccc2)cc1`, -0.176; under `CC1(C)CC(=O)c2cc(OCC(=O)N3CCOCC3)ccc2O1`, -0.0746.
Turning to `Cc1cccc(N2CCN(C(=O)c3cccc(N4C(=O)C5CC=CC(C)C5C4=O)c3)CC2)c1C` (stereo not drawn), the z-score was -0.0691.
`CC(C)Cc1nc(N2CCN(C(=O)C(C)C)CC2)c(C#N)c2c1CCC2` showed a z-score of -1.48.
`Cc1cccc2nc(CSc3ccccc3C(=O)O)cn12`: the z-score worked out at 0.0313.
`O=C1NCC(O)=C1C=NCCO` displayed a z-score of -0.483.
In turn, `COc1ccc(-n2c(SCC#N)nc3ccccc3c2=O)cc1` yielded a z-score of -0.0748.
The molecule `O=C(CSCc1ccc(Cl)cc1)N/N=C/c1c(Cl)cccc1Cl` registered a z-score of -0.11.
`Cc1nnc2n1NC(c1ccc(Cl)cc1)C(C(=O)N(C)C1CCCCC1)S2` (stereo not drawn): the z-score was -0.576.
On to `CC(C)n1c(=S)[nH]c2ccccc2c1=O`, for which the z-score was active: 9.16.
With `Cc1[nH]n(-c2ccccc2)c(=O)c1CCOC(=O)c1cccc(C(F)(F)F)c1`, the z-score was found to be 1.21.
Molecule `CCN1CCN(CC(=O)Nc2cccc(C)c2C)C(=O)C1=O` showed a z-score of 0.232.
`CCOc1cccc(N(C(=O)C2COc3ccccc3O2)C(C(=O)NC2CCCCC2)c2ccc(O)cc2)c1` (stereo not drawn) came in with a z-score of -0.0915.
`CC(=O)Cn1cnc2sc(-c3ccccc3)cc2c1=O` came in with a z-score of -0.0877.
Under `Cc1ccc(S(=O)(=O)NCC2CCC(C(=O)NCc3ccc4c(c3)OCO4)CC2)cc1` (stereo not drawn) stands -0.117; under `CN1C2C=C3C(C#N)=C(N)C(C#N)(C#N)C(c4ccc(Br)cc4)C3C1CC2` (stereo not drawn), 0.361; under `O=C(c1ccco1)N1CCN(S(=O)(=O)c2ccc(F)cc2)CC1`, 0.471.
Turning to `O=C(Nc1ccc(F)cc1)C(Sc1nc2ccccc2[nH]1)c1ccccc1` (stereo not drawn), the z-score was -0.0892.
In turn, `CC(CCc1ccccc1)NC(=O)c1ccc(Br)o1` (stereo not drawn) came in with a z-score of -0.657.
As to `Cc1ccnc(N2CCN(c3c4c(c(C#N)c5nc6ccccc6n35)CCC4)CC2)c1`, the z-score was 0.395.
For the molecule `CCc1ccc(NC(=O)N(C2CCCCC2)C(C)c2cccnc2)cc1` (stereo not drawn), the z-score is -0.49.
For the molecule `C=CCn1c(NC(=O)c2ccccc2Cl)c(C#N)c2nc3ccccc3nc21`, the z-score is -0.248.
`CCCCSCc1ccc(C(=O)O)o1` registered a z-score of -0.356.
For `C/C(=N\NC(=O)c1ccc(NS(=O)(=O)c2cccs2)cc1)c1ccccc1`, the z-score was -0.109.
With `O=C(CCCN1C(=O)c2ccccc2C1=O)OC1CSCC1NC(=O)c1ccccc1` (stereo not drawn), the z-score is -0.17.
`Cc1ccc(-c2nc3ccccc3c(=O)n2NC(=O)c2cccs2)cc1` registered a z-score of -0.0147.
Regarding `Cc1ccc(S(=O)(=O)NC(=O)NCc2ccccc2)cc1`, the z-score was -0.287.
As for `C=CCn1c(SCC(=O)N2CCc3ccccc3C2)nnc1-c1ccncc1`, the figure is -0.255.
Under `O=C1C2C3C=CC(C3)C2C(=O)N1c1ccc(Cc2ccncc2)cc1` (stereo not drawn) stands -0.0666; under `N/C(=N\OC(=O)Cc1ccc(-c2ccccc2)cc1)c1cccc([N+](=O)[O-])c1`, -0.141.
Under `CC(C)CNC(=S)NNC(=O)c1nn(C)cc1Cl` stands -0.246; under `Cc1cc(NC(=O)CSc2nc(-c3cccs3)cc(C(F)(F)F)n2)no1`, -0.125; under `CCC(C)(C(=O)NC1CCCC1)N(Cc1ccco1)C(=O)c1ccccn1` (stereo not drawn), -0.181.
Molecule `CC(NC(=O)c1ccc(Cl)cc1)C(=O)N1CCCCC1` (stereo not drawn) returned a z-score of -0.106.
For `COc1ccc(N2C(=O)CC(c3ccc(OC(C)C)cc3)C2=O)cc1` (stereo not drawn), the z-score was -0.209.
Consider `Cn1c(CNC(=O)c2ccccc2)nnc1SCC(=O)N1CCN(c2ccccc2)CC1`, for which the z-score is -0.274.
`CC(SCc1cn2cc(Cl)ccc2n1)C(=O)O` (stereo not drawn) yielded a z-score of 0.409.
As for `CCCn1c(N)c(C(=O)CSc2nnc(C)n2Cc2ccccc2)c(=O)n(C)c1=O`, the figure is 0.481.
`Cn1c(CN2CCCC2)nc2cc(NC(=O)Nc3ccccc3)ccc21` returned a z-score of 0.0925.
Under `O=C(OCC(=O)N1CCN(C(=O)c2ccco2)CC1)c1ccccc1OCc1ccccc1` stands -1.45; under `Cc1cc(C2=CC(C)(c3cc(C)oc3C)Nc3nc(C(F)(F)F)nn32)c(C)o1` (stereo not drawn), 1.62; under `CCS(=O)(=O)n1nc(-c2ccccc2)nc1SCc1ccccc1`, -0.149.
For the molecule `CCn1cc(C2=NC(C)CO2)c2ccccc21` (stereo not drawn), the z-score was -0.418.
On to `COc1ccc(C(C(=O)NCc2ccccc2)N(Cc2ccc3c(c2)OCO3)C(=O)c2cnccn2)cc1` (stereo not drawn), for which the z-score is 0.124.
Molecule `Cc1ccc(Cn2ccc(NC(=O)c3nn(C)cc3Cl)n2)cc1` had a z-score of -0.33.
Turning to `CCOC(=O)c1cc(NC(=O)N(C(C)C)C(C)C)c(C)nc1C`, the z-score amounted to 0.0304.
On to `Clc1ccc2nc(CSc3nc4ccccc4o3)cn2c1`, for which the z-score was -0.47.
For the molecule `CCCC(=O)N(Cc1cc2ccccc2[nH]c1=O)c1ccccc1OC`, the z-score was -0.531.
With `Nc1nc(CSc2nnnn2-c2ccc(Cl)cc2)nc(N2CCOCC2)n1`, the z-score was -0.179.
Under `Cc1cccc(C(C)C)c1NC(=O)C1CN(S(=O)(=O)c2ccccc2)CCN1S(=O)(=O)c1ccccc1` (stereo not drawn) stands -0.617; under `COC(=O)c1sc(-c2ccccc2)cc1NC(=O)c1ccc(F)cc1`, -0.194; under `COc1ccc(CN(C(=O)c2nsc(Cl)c2Cl)C(C(=O)NC2CCCC2)c2ccc(C)cc2)cc1` (stereo not drawn), -0.151.
As to `O=C(Cc1cccc2ccccc12)OCn1nnc2ccccc2c1=O`, the z-score was -0.291.
In turn, `COc1ccc(-c2c(=O)n(OCc3ccccn3)c3ccccc3[n+]2[O-])cc1OC` gave a z-score of -0.924.
As for `CCOC(=O)Cn1c(=NC(=O)CSC(C)=O)sc2cc(OC)ccc21`, the figure is -0.254.
For `COc1cc(C(=O)O/N=C2\CCCc3c2ccc(OC)c3[N+](=O)[O-])cc(OC)c1OC`, the z-score came to 0.405.
`Cc1cc(C(F)F)nn1CC(=O)NCc1ccc(Cl)cc1Cl`: the z-score was -0.113.
`Fc1ccc(N2N=C(c3cccs3)CC2c2ccco2)c(F)c1` (stereo not drawn) had a z-score of -0.0593.
The molecule `O=C(CCCSc1nc2ccccc2[nH]1)NCc1ccccc1Cl` returned a z-score of -0.16.
`COc1ccccc1NC(=S)NCCSc1ccc(C)cc1` yielded a z-score of 0.199.
Molecule `CSCCC(Nc1ccc(S(=O)(=O)N2CCOCC2)cc1[N+](=O)[O-])C(=O)OCC(=O)NCC(C)C` (stereo not drawn) yielded a z-score of -0.305.
The molecule `CCOC(=O)c1c(C#N)cnn1-c1ccc(C)cc1` registered a z-score of -0.142.
The molecule `O=C(CSc1nc2ccccc2c(=O)n1Cc1ccco1)NCc1ccco1` yielded a z-score of -0.352.
`O=C(Nc1cccc2ccccc12)c1ccc(Cn2cc(Cl)cn2)cc1` displayed a z-score of -1.06.
With `COc1ccc(CCNC(=O)Cc2cc(OCc3ccccc3)c(OC)cc2[N+](=O)[O-])cc1OC`, the z-score is -0.569.
`CC(C)CN(C(=O)COC(=O)c1cc2c(s1)CCC2)C1CCS(=O)(=O)C1` (stereo not drawn) showed a z-score of -0.146.
As for `COc1ccc(C2=CC(c3cc(OC)c(OC)c(OC)c3)NC(=S)N2)cc1` (stereo not drawn), the z-score was -0.549.
`CCOC(=O)Cn1nnc(-c2ccccc2)n1` returned a z-score of -0.0293.
Under `CC(C)C(=O)NNC(=O)CSc1nc(C2CCCCC2)nc2ccccc12` stands 0.405; under `COc1ccccc1NC(=O)NC1(C(=O)N2CCCCCC2)CCCCC1`, 0.445; under `CCCCCCCN(C(=O)CCl)c1ccccc1C`, -0.153.
As to `CC(C)CNC(=S)NNC(=O)c1csc2c1CCCC2`, the z-score was -0.116.
As for `O=C1CC(N2CCN(C(c3ccccc3)c3ccccc3)CC2)C(=O)N1Cc1ccc(N2CCCC2=O)cc1` (stereo not drawn), the figure is -0.195; as for `CCOC(=O)c1sc2ncn(C(C)C(=O)OC)c(=O)c2c1C` (stereo not drawn), -0.879; as for `CCOC(=O)c1cc2c(=O)n3ccccc3nc2n(CCOC)c1=NC(=O)C(C)(C)C`, -0.316.
Molecule `Cc1ccccc1NC(=O)CSc1nc2c(c(-c3ccco3)c1C#N)CCCC2` returned a z-score of -0.266.
Under `CCS(=O)(=O)N1Cc2ccccc2CC1C(=O)Nc1ccc(NC(C)=O)cc1` (stereo not drawn) stands 0.163; under `CON1C(=O)C(=O)N(OC)C2CCCCCC21` (stereo not drawn), -0.169.
`O=C(CSc1nnc(CNC(=O)c2ccccc2F)o1)NCC1CCCO1` (stereo not drawn) registered a z-score of -0.0835.
Under `Cn1c(NCCCN2CCOCC2)nc2c1c(=O)n(Cc1ccc(Cl)cc1)c(=O)n2C` stands 0.0177; under `c1ccc2sc(Nc3nc4cc5c(cc4s3)OCO5)nc2c1`, 0.501.
As to `O=C(NCCCN1CCCC1=O)c1ccc2c(c1)NC(=O)c1ccccc1S2`, the z-score is -0.351.
Regarding `CCOC(=O)c1c(CC(C)C)csc1NC(C)=O`, the z-score was found to be 0.0593.
In the case of `Cc1cc(O)ccc1Nc1nc2ccccc2nc1Nc1ccc(O)cc1C`, the z-score is -1.19.
For the molecule `CC1=C(C(=O)OCCOC(C)C)C(c2cc3c(cc2Br)OCO3)CC(=O)N1` (stereo not drawn), the z-score was -0.122.
With `Nc1cccc(C2=Nc3cccc4cccc(c34)N2)c1`, the z-score is -0.148.
As for `COc1cc(OC)cc(C(=O)N2CCCc3ccccc32)c1`, the figure is -0.088; as for `O=C(O)C1C2C=CC(C2)C1C(=O)NCCC1=CCCCC1` (stereo not drawn), 0.367.
Under `c1ccc(Nc2ccccn2)cc1` stands 0.132.
In turn, `CCN(CC)S(=O)(=O)c1cc(NC(=O)CSc2nnc(-c3cccs3)o2)ccc1C` came in with a z-score of -0.183.
